Assay results: the supplement of paper PMC9588766
Where a name gives a salt, the structure may show the parent alone. ± gives the standard deviation of the averaged measurements. In all, about 2,000 compounds were measured (“cell viability relative to DMSO control (compound alone)”: median about 0.98, lowest 2% from about 0.23 on). Some of the results follow.

Test system: PDC-DUC18828
Assay: cell viability relative to DMSO control (compound alone) (fraction); PDC-DUC18828 is a patient-derived cholangiocarcinoma cell line; higher = less growth inhibition
Conditions: 1 µM; 72 h
Protocol: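 Selleck Bioactive library screen in the patient-derived FGFR2-G3BP2 fusion-positive ICC cell line PDC-DUC18828 (500 cells/well). Each compound was tested at 1 uM alone, in triplicate, for 72 h. Viability was read by CellTiter-Glo and normalised to plate DMSO controls.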

SMILES | cell viability
CC(C)(C)c1ccc(S(=O)(=O)NCc2ccc(C(=O)Nc3cccnc3)cc2)cc1 | 0.496 ± 0.024
CO[C@H]1C(=O)[C@]2(C)[C@@H](OC)C[C@H]3OC[C@@]3(OC(C)=O)[C@H]2[C@H](OC(=O)c2ccccc2)[C@]2(O)C[C@H](OC(=O)[C@H](O)[C@@H](NC(=O)OC(C)(C)C)c3ccccc3)C(C)=C1C2(C)C [Cabazitaxel] | 0.288 ± 0.019
O=S(=O)(O)CCSSCCS(=O)(=O)O [Dimesna] | 0.921 ± 0.037
Clc1ccccc1C(c1ccccc1)(c1ccccc1)n1ccnc1 [Clotrimazole] | 0.988 ± 0.032
NC(=O)NO [Hydroxyurea] | 1 ± 0.028
Clc1ccc(COC(Cn2ccnc2)c2ccc(Cl)cc2Cl)cc1 (stereo not given) [Econazole nitrate] | 0.922 ± 0.073
CCc1cc(/C(C)=N/OCc2ccc(C3CCCCC3)c(C(F)(F)F)c2)ccc1CN1CC(C(=O)O)C1 [BAF312 (Siponimod)] | 0.977 ± 0.026
Cc1cc(CS(=O)(=O)c2ccccc2)cc(OCc2ccc(CN3CCC[C@@H]3CO)cc2)c1 | 0.949 ± 0.033
COc1cc2c(cc1OC)CN(CCc1ccc(NC(=O)c3cccc4c(=O)c5cccc(OC)c5[nH]c34)cc1)CC2 | 0.959 ± 0.01
CCN(CCCc1ccccc1)CCCc1ccccc1 [Alverine Citrate] | 0.912 ± 0.042
Cn1cnc(N)c2ncnc1-2 [3-Methyladenine] | 1.04 ± 0.04
Cc1c(O)cccc1C(=O)N[C@@H](CSc1ccccc1)[C@H](O)CN1C[C@H]2CCCC[C@H]2C[C@H]1C(=O)NC(C)(C)C [Nelfinavir Mesylate] | 0.964 ± 0.066
CN(C)CCC(c1ccccc1)c1ccccn1 (stereo not given) [Pheniramine Maleate] | 1.02 ± 0.042
Nc1ccn([C@@H]2O[C@H](CO)[C@@H](O)[C@H]2O)c(=O)n1 [Cytidine] | 1.04 ± 0.1
CC(C)NCCCn1c(Sc2cc3c(cc2I)OCO3)nc2c(N)ncnc21 | 0.575 ± 0.08
CN(C)CCN1C(=O)c2cccc3cc(N)cc(c23)C1=O [Amonafide] | 0.991 ± 0.038
CCOc1ccc(Cc2cc([C@@H]3O[C@H](CO)[C@@H](O)[C@H](O)[C@H]3O)ccc2Cl)cc1 [Dapagliflozin] | 1.08 ± 0.041
O[C@@H]1CO[C@H]2[C@@H]1OC[C@@H]2O [Isosorbide] | 1.06 ± 0.015
O=c1cc(CN2CCOCC2)occ1OCCCCCSc1ccnc2cc(C(F)(F)F)ccc12 | 0.89 ± 0.048
Cc1ccc(O)c([C@H](CCN(C(C)C)C(C)C)c2ccccc2)c1 [Tolterodine tartrate] | 0.983 ± 0.03
Cc1cc(C)cc(NC(=O)Cc2ccc(OC(C)(C)C(=O)O)cc2)c1 [Efaproxiral Sodium] | 1.07 ± 0.092
CCCCOc1ccc(CC(=O)NO)cc1 [Bufexamac] | 0.869 ± 0.014

SMILES | cell viability
CCN1/C(=C/C(C)=O)Sc2ccc(OC)cc21 | 0.964 ± 0.029
CCCCC(C=O)NC(=O)C(CC(C)C)NC(=O)C(CC(C)C)NC(C)=O (stereo not given) | 0.486 ± 0.095
CCCCCCCCCCCCCCCCO [1-Hexadecanol] | 1.02 ± 0.015
O=S(=O)(N=Cc1c(O)ccc2ccccc12)c1cccs1 | 0.985 ± 0.036
CCS(=O)(=O)N1CCC([C@@H](C)n2c(C)c(C(=O)NCc3c(OC)cc(C)[nH]c3=O)c3ccccc32)CC1 | 0.974 ± 0.026
Fc1ccc(CNc2ncnc3ccc(F)cc23)cc1 [Spautin-1] | 0.898 ± 0.058
Cc1c(OCC(F)(F)F)ccnc1C[S+]([O-])c1nc2ccccc2[nH]1 (stereo not given) [Lansoprazole] | 0.923 ± 0.04
O=C1CCc2c(ccc3ccccc23)O1 [Splitomicin] | 0.994 ± 0.026
CC[C@@H]1C(=O)N(C)c2cnc(Nc3ccc(C(=O)NC4CCN(C)CC4)cc3OC)nc2N1C1CCCC1 | 0.389 ± 0.017
COc1ccc2cc1Oc1ccc(cc1)C[C@H]1c3c(cc4c(c3Oc3cc5c(cc3OC)CCN(C)[C@@H]5C2)OCO4)CCN1C [Cepharanthine] | 0.871 ± 0.041
NC1=N[C@@]2(c3cc(NC(=O)c4ccc(F)cn4)ccc3F)COC[C@H]2CS1 | 1.03 ± 0.018
OCC(O)CN1CCN(c2ccccc2)CC1 (stereo not given) [Dropropizine] | 0.947 ± 0.057
COc1ccccc1N1CCN(CCN2C(=O)CC3(CCCC3)CC2=O)CC1 | 1.03 ± 0.029
CN(C)CCC(c1ccc(Cl)cc1)c1ccccn1 (stereo not given) [Chlorpheniramine Maleate] | 0.938 ± 0.015
COC1=CC(=O)C[C@@H](C)[C@]12Oc1c(Cl)c(OC)cc(OC)c1C2=O [Griseofulvin] | 1.07 ± 0.073
CCC(=O)NCC[C@@H]1CCc2ccc3c(c21)CCO3 [Ramelteon] | 1.015 ± 0.0099
CC(C)(C)c1cc(/C=C(\C#N)C(N)=S)cc(C(C)(C)C)c1O [Tyrphostin AG 879] | 0.906 ± 0.025
COc1ccc(-c2coc3cc(O)cc(O)c3c2=O)cc1 [Biochanin A] | 1.01 ± 0.038
NS(=O)(=O)NCCNc1nonc1/C(=N/O)Nc1ccc(F)c(Br)c1 | 0.945 ± 0.0069
O[C@@H](COc1cccc2ncccc12)CN1CCN(C2c3ccccc3[C@@H]3[C@H](c4ccccc42)C3(F)F)CC1 (stereo not given in full) | 0.934 ± 0.019
O=S(=O)(NCCNC/C=C/c1ccc(Br)cc1)c1cccc2cnccc12 | 1.03 ± 0.03
CC(C)c1noc(N2CCC(COc3ccc(-c4ccc(S(C)(=O)=O)cc4)nc3)CC2)n1 | 1.05 ± 0.052

SMILES | cell viability
O=C(NC1CCNCC1)c1n[nH]cc1NC(=O)c1c(Cl)cccc1Cl | 0.421 ± 0.052
O=CN1CC/C(=C/c2ccc3c(c2)OCO3)C1=O | 0.943 ± 0.042
CC[C@H](Nc1ncnc2[nH]cnc12)c1nc2cccc(F)c2c(=O)n1-c1ccccc1 [CAL-101 (Idelalisib, GS-1101)] | 0.9237 ± 0.0058
CCCC(CCC)C(=O)O [Valproic acid sodium salt (Sodium valproate)] | 1.06 ± 0.061
CCCC(CCC)C(=O)O [Divalproex Sodium] | 0.954 ± 0.029
CN(C)[C@@H](CCOc1cccc2ccccc12)c1ccccc1 [Dapoxetine HCl] | 0.953 ± 0.014
CNC(=O)c1ccc(N2C(=S)N(c3cnc(C#N)c(C(F)(F)F)c3)C(=O)C23CCC3)cc1F | 0.942 ± 0.042
O=C(c1ccc(OCCN2CCCCC2)cc1)c1c(-c2ccc(O)cc2)sc2cc(O)ccc12 [Raloxifene HCl] | 0.937 ± 0.054
CCOc1cc(N2CCC(O)CC2)ccc1Nc1ncc2c(n1)N(C)c1ccccc1C(=O)N2C | 0.956 ± 0.029
Fc1ccc2[nH]ccc2c1-c1nc(N2CCOCC2)c2sc(CN3CCN(CC4CC4)CC3)cc2n1 | 0.887 ± 0.12
CC(CN1c2ccccc2Sc2ccccc21)N(C)C (stereo not given) [Promethazine HCl] | 1.09 ± 0.018
CNC(=O)c1ccccc1Sc1ccc2c(/C=C/c3ccccn3)n[nH]c2c1 [Axitinib] | 0.698 ± 0.012
Cc1ccc(NC(=O)Nc2cc(C(F)(F)F)ccc2F)cc1Nc1ccc2c(c1)NC(=O)/C2=C\c1ccc[nH]1 | 0.926 ± 0.034
CCOC(=O)C1=C(C)NC(C)=C(C(=O)OC)C1c1cccc([N+](=O)[O-])c1 (stereo not given) [Nitrendipine] | 0.922 ± 0.016
COC1(c2sc3c(N4CCOCC4)nc(-c4cnc(N)nc4)nc3c2C)COC1 | 0.276 ± 0.017
COc1ccc(-n2nc(C(N)=O)c3c2C(=O)N(c2ccc(N4CCCCC4=O)cc2)CC3)cc1 [Apixaban] | 0.994 ± 0.045
COc1ccc(C(C)=O)c(O)c1 [Paeonol] | 1.07 ± 0.029
COc1c(O)cc2c(c1O)[C@@H]1O[C@H](CO)[C@@H](O)[C@H](O)[C@H]1OC2=O [Bergenin] | 1.01 ± 0.086
Nc1cccc(-c2cc3c(Oc4cccc(O)c4)ncnc3[nH]2)c1 | 0.735 ± 0.038
CC(C)[C@H]1CC[C@H](C(=O)N[C@H](Cc2ccccc2)C(=O)O)CC1 [Nateglinide] | 0.979 ± 0.074
COc1ccccc1OCCNCC(O)COc1cccc2[nH]c3ccccc3c12 (stereo not given) [Carvedilol] | 0.974 ± 0.018
CC(C)c1nc(CN(C)C(=O)N[C@H](C(=O)N[C@@H](Cc2ccccc2)C[C@H](O)[C@H](Cc2ccccc2)NC(=O)OCc2cncs2)C(C)C)cs1 [Ritonavir] | 0.996 ± 0.036

SMILES | cell viability
CC1CCc2cc(F)cc3c(=O)c(C(=O)O)cn1c23 (stereo not given) [Flumequine] | 0.97 ± 0.022
CCCCOc1ccc(OCCCN2CCOCC2)cc1 [Pramoxine HCl] | 0.937 ± 0.033
C[C@@H](O)[C@H]1C(=O)N2C(C(=O)OCOC(=O)C(C)(C)C)=C(SC3CN(C4=NCCS4)C3)[C@H](C)[C@H]12 [Tebipenem Pivoxil] | 0.988 ± 0.024
CCCS(=O)(=O)Nc1ccc(F)c(C(=O)c2c[nH]c3ncc(Cl)cc23)c1F | 0.968 ± 0.034
Nc1nc(N)nc(-c2cc(Cl)ccc2Cl)n1 [Irsogladine] | 1.03 ± 0.079
CCN1CCCC1CNC(=O)c1cc(S(=O)(=O)CC)c(N)cc1OC (stereo not given) [Amisulpride] | 0.979 ± 0.034
CNC(=O)CN1CCC(Oc2cc3c(Nc4cccc(Cl)c4F)ncnc3cc2OC)CC1 [AZD8931 (Sapitinib)] | 0.992 ± 0.013
Nc1ncnc2c1c(-c1cccc(OCc3ccccc3)c1)cn2C1CC(CN2CCCC2)C1 (stereo not given) | 0.919 ± 0.046
O=C(Nc1cccc(Cl)c1)Nc1ncc(CCNc2ncnc3ccsc23)s1 [SNS-314 Mesylate] | 0.696 ± 0.05
CCc1c(C(=O)NCCc2ccc(N3CCCCC3)cc2)[nH]c2ccc(Cl)cc12 | 1.05 ± 0.043
CN1CCN(c2ccc(C(=O)Nc3n[nH]c4ccc(Cc5cc(F)cc(F)c5)cc34)c(NC3CCOCC3)c2)CC1 [Entrectinib (RXDX-101)] | 0.887 ± 0.039
S=c1[nH]cnc2nc[nH]c12 [Mercaptopurine (6-MP)] | 0.928 ± 0.056
NS(=O)(=O)c1ccc(NC(=O)Nc2ccc(F)cc2)cc1 | 1 ± 0.04
Cc1cccc(-c2[nH]ncc2-c2ccc3ncccc3n2)n1 | 1.01 ± 0.05
O=C(NCCCNc1nc(Nc2cccc(NC(=O)N3CCCC3)c2)ncc1I)c1cccs1 | 0.701 ± 0.025
CN(Cc1ccc(C(C)(C)C)cc1)Cc1cccc2ccccc12 [Butenafine HCl] | 1.01 ± 0.046
Cc1nc2c(O)cccc2c(=O)[nH]1 | 0.93 ± 0.019
O=C(NNc1ccccc1)c1ccncc1 | 0.997 ± 0.029
CC(C)n1cnc2c(NCCc3ccc(O)cc3)nc(-c3csc4ccccc34)nc21 [StemRegenin 1 (SR1)] | 1.01 ± 0.025
